Among the data in the supplement of paper PMC10441789 are antibody binding signal values, retold here.

This is one part of the list. Antibody binding of pooled human sera (four to six donors per pool; dilution not stated) to peptides of the Trypanosoma cruzi antigen TSSA on microarrays. Quantile-normalised fluorescence in arbitrary units, mean of duplicate arrays; higher = more binding. No active / inactive call. The uninfected pools are read here as the healthy donors of the same country. The strongest signals lie near the top of the scale (about 60,000).

This experiment concerns pooled sera of uninfected people, Colombia. Kind of experiment: antibody binding signal (normalised fluorescence) (arbitrary fluorescence units); higher = stronger serum antibody binding to peptide. As to the method: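 Microarray of 15-residue peptides over residues 30-55 of Trypanosoma cruzi TSSAII, each with 1 to 10 substitutions at naturally variable positions, probed with one serum pool per country.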
Turning to SSTPPSGTEKKAATG, the antibody binding signal is 363.

In the case of DKKTAAGGTPSQSGA, the antibody binding signal came out at 172.

The sequence SGTENKAATGETPSQ returned an antibody binding signal of 220.

STPPSGKENKAAAGG gave an antibody binding signal of 867.

KDNKPATGETPSQPG displayed an antibody binding signal of 332.

With PPSGKDKKAATGEAP, the antibody binding signal was found to be 349.

In turn, GTEKKAATGETPSQP had an antibody binding signal of 854.

As to TENKPAAGETPSQSG, the antibody binding signal was 178.

For GKEKKAATGGAPSQP, the antibody binding signal was 170.

With EKKAATGGTPSQSGA, the antibody binding signal stood at 1160.

TISTPPSGTDNKAAA came in with an antibody binding signal of 491.

In turn, KDKKPAAGGAPSPPG returned an antibody binding signal of 71.

In the case of SGTENKTATGGAPSP, the antibody binding signal worked out at 318.

In the case of TDKKAATGETPSQSG, the antibody binding signal amounted to 453.

Regarding KEKKAAAGGTPSPSG, the antibody binding signal was 97.9.

Sequence KDKKPATGEAPSQSG came in with an antibody binding signal of 185.

On to TENKTATGGTPSQPG, for which the antibody binding signal is 274.

Turning to TDNKAAAGGTPSQPG, the antibody binding signal was found to be 413.

GTEKKTATGETPSQP came in with an antibody binding signal of 112.

With SGKDNKAAAGETPSQ, the antibody binding signal was 710.

Sequence TSSTPPSGKDNKAAT yielded an antibody binding signal of 180.

Sequence GKDNKTAAGEAPSPS yielded an antibody binding signal of 193.

Take DNKPAAGETPSPPGA: the antibody binding signal amounted to 181.

For the sequence GKDNKAAAGGAPSQS, the antibody binding signal was found to be 141.

In turn, GKDKKPAAGGTPSQS displayed an antibody binding signal of 278.

For PPSGKDNKAAAGEAP, the antibody binding signal came out at 320.

Regarding PSGKDKKPATGGTPS, the antibody binding signal stood at 96.8.

KEKKPAAGGTPSQSG showed an antibody binding signal of 114.

As to DNKPATGETPSQPGA, the antibody binding signal is 259.

On to SGKENKPATGEAPSP, for which the antibody binding signal is 397.

Turning to SGKDNKPAAGETPSP, the antibody binding signal is 546.

For GTENKTATGGTPSPS, the antibody binding signal worked out at 621.

Regarding GTENKAAAGGAPSPP, the antibody binding signal is 328.

In turn, KENKPAAGEAPSPPG gave an antibody binding signal of 112.

In turn, GTEKKTATGGTPSQP displayed an antibody binding signal of 756.

PSGTEKKPATGGTPS yielded an antibody binding signal of 250.

On to GTEKKTAAGETPSQP, for which the antibody binding signal amounted to 677.

The sequence GKDKKTATGGTPSQP gave an antibody binding signal of 119.

Sequence EKKPAAGGAPSPPGA had an antibody binding signal of 137.

As to TENKTAAGETPSQSG, the antibody binding signal stood at 134.
